Results taken from PubChem BioAssay AID1345083 (National Center for Advancing Translational Sciences (NCATS), 2018).
Among all 94,000 compounds or so, about 6,200 (6.6%) were called active. Inconclusive results, whose numbers are uncertain, are shown with a selection of clear calls. The call rests on the fitted dose curve; in most records, active means well fitted inhibition curve with a large enough effect; inconclusive means small, poorly fitted or top-dose-only effect; inactive means flat fitted curve, though single readings scatter. A potency beside an inconclusive call is a rough fit, not a confirmed value.

assay: Cytotoxic Profiling in HEK 293 Cell Line of Diverse Libraries Using Quantitative High-Throughput Screening; conditions: HEK 293 viability, ATP luminescence (CellTiter-Glo), 48-72 h; activity change, negative = cytotoxicity: at 115 µM (top of the series) unless noted; series mostly up to 115 µM; further: nearly all actives have a fitted effect of over 60% in size
How it was run: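 HEK 293 cells at 250 cells/well were exposed to compounds by pintool transfer for 48 or 72 hr at 37 degree Celsius, 5% CO2. Viability was read as ATP-coupled luminescence with CellTiter-Glo after 10 min at room temperature.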
On the % scale 0 is the no-effect control and ±100 the full control effect; potency means the concentration at half of the fitted maximal effect; tags describe the fitted curve by direction and shape.

SMILES	Potency	activity change, negative = cytotoxicity	outcome
O=C1CCN(CC(O)COCc2ccco2)c2cc3c(cc2CN1Cc1ccccc1)OCO3 (configuration not stated)	inconclusive: 70.8 µM [inhibitor, partial curve, poor fit]		
Cc1nc(-c2c3n(c(=O)n(Cc4ccc(F)c(F)c4)c2=O)CCCCC3)no1		inactive: -2.75%	
O=C(c1ccc(F)c(F)c1)N1CCN(c2cc(-c3ccc(Cl)cc3)[nH]n2)CC1	inconclusive: 44.7 µM [inhibitor, partial curve, poor fit]		
COc1cncc(NC(=O)C2=NO[C@@H]3CN(Cc4ccc(F)c(Cl)c4)C[C@H]23)c1	inconclusive: 100 µM [inhibitor, partial curve, poor fit]		
O=C(c1ccccc1)N1CCC[C@H]1c1nc(-c2ccccc2Cl)no1	inconclusive: 79.4 µM [inhibitor, single point]		
COc1cccc(CN2CCNc3cc(-c4ccccc4)ncc3C2)c1	inconclusive: 35.5 µM [inhibitor, partial curve, poor fit]		
Cn1ncc2c(C(=O)Nc3ccccc3Cl)cc(-c3cccc(F)c3)nc21	inconclusive: 28.2 µM [inhibitor, full curve]		
COc1ccc(C(=O)N2CCOc3ccc(CCC(N)=O)cc3C2)cc1F		inactive: -5.77%	
O=C(c1ccccn1)N1CCC2(CC1)CC(c1cccc(C(F)(F)F)c1)=NO2	inconclusive: 79.4 µM [inhibitor, partial curve, poor fit]		
Cn1ncc2c(C(=O)NCc3ccncc3)cc(-c3ccc(F)cc3)nc21	inconclusive: 56.2 µM [inhibitor, partial curve, poor fit]		
COc1ccccc1CN1Cc2cc(NC(=O)Cc3ccc(F)cc3)ccc2OC(C)C1=O (configuration not stated)	inconclusive: 50.1 µM [inhibitor, partial curve, poor fit]		
Cc1ccc(Nc2ccnc(N3CCC(NC(=O)N(C)C)CC3)n2)cc1	inconclusive: 63.1 µM [inhibitor, full curve, poor fit]		
COc1cccc(CC(=O)N[C@@H]2CCC[C@@H](C(=O)NCc3cc(F)cc(F)c3)CC(=O)N(C)C2)c1		inactive: -12.7%	
Cc1nc(-c2c3n(c(=O)n(CC(=O)NCc4ccc(F)cc4)c2=O)CCCC3)no1	inconclusive: 44.7 µM [inhibitor, partial curve, poor fit]		
OC1(CN2CCCCC2)CCN(Cc2ccc(C(F)(F)F)cc2F)C1 (configuration not stated)	inconclusive: 79.4 µM [inhibitor, single point]		
COCC(=O)N1CCN(CCn2nc3n(c2=O)CCCC3)CC1		inactive: 0.0789% [at 172 µM]	
COc1cccc(Nc2ncc3c(n2)C(C)(C(=O)NCc2ccc4c(c2)OCO4)CC3)c1 (configuration not stated)	active: 31.6 µM		
CSc1ccc(-c2cccc(C(=O)NCC(=O)NCc3ccccc3F)c2)cc1	inconclusive: 10 µM [inhibitor, full curve, poor fit]		
Cc1cccc(C(=O)N[C@@H]2CN(C3CCOCC3)C[C@H]2CN(C)C)c1	inconclusive: 28.2 µM [inhibitor, full curve]		
Cc1nn2c(c1-c1ccccc1OCc1ccccc1)N(C(=O)C(C)C)CCC2	active: 31.6 µM		
Cc1ncsc1CN1CCC(N2CC3(CCCCC3)C2c2ccccc2)CC1 (configuration not stated)	active: 44.7 µM		
CCCNC(=O)N1CCCCCCNC(=O)[C@@H]2C[C@@H](c3nc(-c4cccnc4)no3)C[C@@H]21			inactive
CC(C)NC(=O)c1ccc2nnc(-c3cccc([S+](C)(=O)[O-])c3)n2c1			inactive

SMILES	Potency	activity change, negative = cytotoxicity	outcome
O=C(CCc1nc2ccc(Cl)cc2[nH]1)N1CCCC(Cc2nc(C3CCOCC3)no2)C1 (configuration not stated)	inconclusive: 50.1 µM [inhibitor, partial curve, poor fit]		
CN1c2cc(C(=O)Nc3cccc(OC(F)(F)F)c3)ccc2C(=O)N2CCCC21 (configuration not stated)	inconclusive: 44.7 µM [inhibitor, partial curve, poor fit]		
COc1cccc(-c2ccc(C(=O)N3CCC(NC(C)=O)CC3)cc2)c1	inconclusive: 89.1 µM [inhibitor, single point]		
Cc1nc(NC2CCCCC2)ncc1C(=O)O		inactive: 2.28%	
CC1=C[C@@H](CN(C)CCc2ccccn2)[C@H](C(C)C)C[C@H]1Cc1nnc(-c2ccccc2F)o1	active: 44.7 µM		
Cc1cc(-c2cc3c(cn2)CN(Cc2c[nH]c4ccccc24)CCN3)ccn1	active: 112 µM		
CN1CCCCCC(O)c2cc(C(=O)NCCc3ccccn3)ccc21 (configuration not stated)	inconclusive: 56.2 µM [inhibitor, partial curve, poor fit]		
COCCCNc1ccc2nnc(-c3ccc(C)cn3)n2n1		inactive: -7.92% [at 172 µM]	
COc1cccc(CC(=O)N[C@@H]2C[C@H](Cn3cc(C4CC4)nn3)[C@@H](O)[C@H]2O)c1			inactive [at 172 µM]
COc1cccc(C(=O)N2CCC(N3C[C@H](O)C[C@H]3C(=O)NCc3ccc(C)cc3)CC2)c1		inactive: -28.3%	
O=C(Cc1cccn1-c1cccc(Cl)c1)NCCCN1CCCC1		inactive: -5.21%	
COCC1CN(S(=O)(=O)c2cccc(C)c2)CC12CCOCC2 (configuration not stated)		inactive: 5.06%	
CNC(=O)c1cc(S(=O)(=O)N2CC[C@H](CO)[C@H](O)C2)cs1			inactive
c1cc(OC2CCCCC2)ncc1-c1noc([C@@H]2CCCN2C2CCOCC2)n1	inconclusive: 89.1 µM [inhibitor, partial curve, poor fit]		
O=C(NC1CCCCC1)[C@@H]1Cc2nc[nH]c2CN1Cc1ccc(Cl)cc1	inconclusive: 112 µM [inhibitor, partial curve, poor fit]		
Cn1ncc2c(C(=O)NCc3cccs3)cc(-c3ccc(F)cc3)nc21	inconclusive: 44.7 µM [inhibitor, partial curve]		
FC(F)(F)c1ccc2c(c1)nc1n2[C@@H](CNCc2c[nH]c3ccccc23)COC1	active: 89.1 µM		
Cc1cccc2nc(C(=O)N3CCC(n4cc(C(C)(C)O)nn4)CC3)cn12	inconclusive: 22.4 µM [inhibitor, full curve, poor fit]		
c1cc2c(cc1N1CCC(N3CCC4(CCNCC4)C3)CC1)OCO2	inconclusive: 79.4 µM [inhibitor, partial curve, poor fit]		
Cc1ccoc1C(=O)N[C@@H]1CN(c2ncccn2)C[C@H]1CO		inactive: -4.97%	
COc1c(F)cccc1CN1CCOc2cc([S+](N)(=O)[O-])ccc2C1	inconclusive: 100 µM [inhibitor, partial curve, poor fit]		
Cc1ccc(-c2nnc(C3CN(C(=O)Cc4ccccc4)CC34CCOCC4)o2)cc1 (configuration not stated)	inconclusive: 39.8 µM [inhibitor, single point]		
COc1ccc(C(=O)N2CCn3c(nn(-c4ccncc4)c3=O)C2)cc1	inconclusive: 35.5 µM [inhibitor, full curve]		

SMILES	Potency	activity change, negative = cytotoxicity	outcome
Cc1ccc2c(c1)N(CCCC(=O)N1CCC(C)(c3noc(C4CC4)n3)CC1)C(=O)CO2	inconclusive: 39.8 µM [inhibitor, partial curve, poor fit]		
COCCn1c(CN2C(=O)N(C)C(=O)C2(C)C)nnc1C1CC(N)C1 (configuration not stated)		inactive: 2.99%	
COc1ccc(NC(=O)CCC2CCN(C(=O)c3ccccc3)CC2)c(OC)c1	inconclusive: 79.4 µM [inhibitor, single point]		
Cc1ccc(C(=O)NCC2(C)CCOCC2)s1		inactive: 1.58%	
CC(=O)N1CC2(Cc3ccccc31)CN(C(=O)c1ccccc1C)C2	inconclusive: 126 µM [inhibitor, partial curve, poor fit]		
O=C(C1CCCC1)N1CCOC[C@H](Oc2ccc(C(F)(F)F)cn2)C1		inactive: -18.3% [at 172 µM]	
CCN1c2cc(C(=O)Nc3cccc(C(F)(F)F)c3)ccc2C(=O)N2CCCCC21 (configuration not stated)	active: 28.2 µM		
CCOc1ccccc1NC(=O)N1CCCC(c2noc(COc3ccccc3F)n2)C1 (configuration not stated)	inconclusive: 100 µM [inhibitor, single point]		
O=C(c1n[nH]c(=O)c2ccccc12)N1CCCCCC1c1nnc(-c2ccccc2)o1 (configuration not stated)	inconclusive: 50.1 µM [inhibitor, partial curve, poor fit]		
N#Cc1ccc(CN2CCC3(CC(Cc4ccccc4)=NO3)C2)cc1 (configuration not stated)	inconclusive: 56.2 µM [inhibitor, partial curve, poor fit]		
CC(C)(C)c1ccc(C(=O)N2CCC(c3n[nH]c(=O)n3Cc3ccc(F)cc3)CC2)cc1	inconclusive: 39.8 µM [inhibitor, partial curve]		
CCCNC(=O)N1CCCC(Cc2ncc(C)n2Cc2ccccc2)C1 (configuration not stated)	inconclusive: 70.8 µM [inhibitor, partial curve, poor fit]		
CCn1nc(C)c(C(C)NCc2cccc(OC)c2OCCN2CCOCC2)c1C (configuration not stated)		inactive: -5.29%	
Cc1nn(Cc2ccccc2)c(C)c1[C@@H]1C=C[C@@H](NC(=O)Nc2cccc(C#N)c2)C1	active: 70.8 µM		
CCC1Oc2ccc(NC(=O)Cc3ccccc3)cc2CN(Cc2ccc3c(c2)OCO3)C1=O (configuration not stated)	active: 35.5 µM		
CN1CCC(Cc2nc(CC3C=CS(=O)(=O)C3)n(CCO)n2)CC1 (configuration not stated)	inconclusive: 2.51 µM [inhibitor, full curve, poor fit]		
O=C(C1CCCCC1)N1CCN(C2CCN(Cc3cccnc3)C2=O)CC1 (configuration not stated)		inactive: -13.3%	
COc1cccc(C(=O)N2CCn3c(nnc3-c3ccc(NC(C)=O)cc3)C2)c1		inactive: -5.68%	
O=C(c1ccsc1)N1CCC2(CC1)CC(N(Cc1ccc(F)cc1)C1CC1)CCO2 (configuration not stated)	inconclusive: 44.7 µM [inhibitor, partial curve, poor fit]		
O=C(c1ccc2c(c1)OCO2)N1CCC(N2Cc3cccn3C2=O)CC1		inactive: 2.36%	
CN(C)c1ccc(CN[C@H]2CO[C@H]3[C@@H]2OC[C@H]3OC(=O)Nc2ccc(Oc3ccccc3)cc2)cc1	inconclusive: 56.2 µM [inhibitor, partial curve, poor fit]		
